Source: patent US7488491B2, “Use of glycosylceramides as adjuvants for vaccines against infections and cancer” (New York University, priority 2001, dated 2009)

How the values were obtained:
[1] = tested on: p18-specific CD8+ T cells (p18 protein of HIV); experiment: ELISPOT assay of HIV p18-specific CD8+ T cells from immunized mice; conditions: BALB/c; SIN(p18) s.c. with α-GalCer
[2] = tested on: CS-specific CD4+ and CD8+ T cells (P. yoelii CS protein); experiment: ELISPOT assay of CS-specific CD4+ and CD8+ T cells from immunized mice

CCCCCCCCCCCCCCCCCCCCCCCCCC(=O)N[C@@H](CO[C@H]1O[C@H](CO)[C@H](O)[C@H](O)[C@H]1O)[C@H](O)[C@H](O)CCCCCCCCCCCCCC [α-GalCer, (2S,3S,4R)-1—O-(α-D-galactopyranosyl)-2-(N-hexacosanoylamino)-1,3,4-octadecanetriol]
increase in number of p18-specific IFN-γ-secreting CD8+ T cells induced by SIN(p18) [1]: 4 fold | number of CS-specific CD8+ T cells secreting IFN-γ, SIN(Mal) ([2]; BALB/c, SIN(Mal) with α-GalCer): increases | number of CS-specific CD4+ and CD8+ T cells secreting IFN-γ vs virus alone, AdPyCS ([2]; BALB/c, suboptimal dose AdPyCS s.c. with α-GalCer, splenocytes): more than 10 fold | number of CS-specific CD8+ T cells in CD1d-deficient mice vs untreated ([2]; CD1d-deficient mice, γ-spz with α-GalCer): failed to increase | number of CS-specific IFN-γ-secreting CD8+ and CD4+ T cells in IFN-γ receptor-deficient mice ([2]; IFN-γR-/- mice, γ-spz with α-GalCer, ten days): failed to augment | level of CS-specific T cell responses at six weeks after γ-spz immunization vs non-treated mice ([2]; α-GalCer-treated mice): remained much higher | increase in number of IFN-γ-secreting CS-specific CD4+ T cells vs γ-spz alone ([2]; γ-spz immunization with α-GalCer): approximately 5 fold
